{"source": "PubChem BioAssay AID504706", "about": "(National Center for Advancing Translational Sciences (NCATS), 2011)", "note": "In all, about 320,000 compounds went through this assay and about 200 (0.062%) were called active. Inconclusive results, whose numbers are uncertain, are shown with a selection of clear calls. The call rests on the fitted dose curve; in most records, active means well fitted activation curve with a large enough effect; inconclusive means small, poorly fitted or top-dose-only effect; inactive means no such curve, though single readings can be large or run the other way. No potency is given beside an inconclusive call; the fits are too rough. Potency means the concentration at half of the fitted maximal effect; tags describe the fitted curve by direction and shape."}
{"assay": "qHTS assay for re-activators of p53 using a Luc reporter; further: nearly all actives have a fitted effect of over 45% in size; on activity change, positive = activation: % of control where 0% means no effect", "conditions": "H1299 p53-A138V BP100-luciferase reporter, luminescence, 24 h; series mostly up to 92.2 µM; activity change, positive = activation: at the top concentration", "summary_of_the_method": "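H1299 (p53-null), stable ts p53-A138V + BP100-Luc; 1000 cells/well, Opti-MEM/10% FBS; cpd 4 pt, 1:5; 24 h, 37 deg C, 5% CO2; detection reagent 10 min RT; luminescence.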"}
{"smiles": "Nc1ncc(Br)cc1N=Cc1ccccc1", "Potency": "inconclusive [activator, partial curve, poor fit]"}
{"smiles": "CCOC(=O)c1csc(NC(=O)c2cc(=O)c3ccccc3o2)n1", "activity change, positive = activation": "inactive: 4.78%"}
{"smiles": "COc1cc(OC)c(C(=O)O/N=C(\\N)c2cccc(C)c2)cc1OC", "activity change, positive = activation": "inactive: 21.2%"}
{"smiles": "O=C(Nc1ccc2c(c1)CCC2)c1cc2ccccc2o1", "Potency": "inconclusive [activator, partial curve, poor fit]"}
{"smiles": "Cc1ccc(N=C2NC(=O)/C(=C/C=C/c3ccco3)S2)cc1", "Potency": "inconclusive [activator, partial curve, poor fit]"}
{"smiles": "O=C(Nc1ccccc1)Nc1ccc2c(c1)CCC2", "activity change, positive = activation": "inactive: 21.7%"}
{"smiles": "COc1ccc2cc(C(=O)N/N=C/c3sc4ccccc4c3O)ccc2c1", "Potency": "inconclusive [activator, partial curve, poor fit]"}
{"smiles": "O=C1CCC/C=C\\C[C@@H](CC(=O)N(CCO)Cc2ccccc2)C(=O)NCCO1", "activity change, positive = activation": "inactive: 7.41%"}
{"smiles": "COc1ccc(/C=N/NC(=O)c2cc(C)oc2C)cc1OCc1ccccc1", "activity change, positive = activation": "inactive: 2.13%"}
{"smiles": "Cc1nn(CCOc2ccccc2)c(=O)n1-c1c(F)cccc1F", "Potency": "inconclusive [activator, partial curve, poor fit]"}
{"smiles": "O=C1C2C3C=CC(C4CC34)C2C(=O)N1/N=C/c1ccc([N+](=O)[O-])o1", "note": "(stereo not given)", "Potency": "inconclusive [activator, single point]"}
{"smiles": "COc1ccc(C(=O)NN=C2CCCC2)cc1OC", "activity change, positive = activation": "inactive: -19.8%"}
{"smiles": "CN(C)CCNS(=O)(=O)c1ccc2c3c(cccc13)C(=O)N2", "Potency": "inconclusive [activator, single point]"}
{"smiles": "CC(=O)Oc1ccc(NC(=O)CSc2ccccc2)cc1", "Potency": "inconclusive [activator, full curve, poor fit]"}
{"smiles": "Cn1cc([N+](=O)[O-])c(C(=O)Nc2ccc(-c3nc4ccccc4o3)cc2)n1", "Potency": "inconclusive [activator, partial curve, poor fit]"}
{"smiles": "COc1ccc(-c2nnc(-c3cccs3)o2)cc1OC", "Potency": "inconclusive [activator, partial curve, poor fit]"}
{"smiles": "Brc1ccc(-c2csc(NC3=NCCCCC3)n2)cc1", "Potency": "inconclusive [activator, full curve, poor fit]"}
{"smiles": "CC(NC(=O)Nc1ccccc1)C(c1cccs1)N1CCN(C)CC1", "note": "(stereo not given)", "Potency": "inconclusive [activator, single point]"}
{"smiles": "Cc1cc(C=O)c(C)n1-c1ccc(N2CCCC2)c([N+](=O)[O-])c1", "Potency": "inconclusive [activator, single point]"}
{"smiles": "CN(Cc1ccccc1)C(=O)CCSc1nc(-c2ccc3c(c2)OCO3)cc(C(F)(F)F)n1", "activity change, positive = activation": "inactive: -11.4%"}
{"smiles": "O=c1c2ccccc2nc(COc2ccccc2)n1/N=C/c1cc([N+](=O)[O-])ccc1O", "Potency": "inconclusive [activator, partial curve, poor fit]"}
{"smiles": "COc1ccccc1N1N=C(c2cccs2)CC1c1ccccc1", "note": "(stereo not given)", "Potency": "inconclusive [activator, single point]"}
{"smiles": "Cc1cccc(-n2cc(-c3ccccc3)[nH]c2=S)c1", "Potency": "inconclusive [activator, partial curve]"}
{"smiles": "CS(=O)(=O)/C(C#N)=C\\c1cnc(S(=O)(=O)c2ccccc2)s1", "activity change, positive = activation": "inactive: -17.3%"}
{"smiles": "O=C(Nc1cccc(C(F)(F)F)c1)Oc1ccc(Cl)c2cccnc12", "activity change, positive = activation": "inactive: 18.5%"}
{"smiles": "CC(NC(=O)/C(C#N)=C/c1ccc(N2CCOCC2)cc1)c1ccccc1", "note": "(stereo not given)", "activity change, positive = activation": "inactive: 0.733%"}
{"smiles": "O=C(COc1ccc(Br)cc1Cl)c1ccc[nH]1", "Potency": "inconclusive [activator, partial curve, poor fit]"}
{"smiles": "CC1CCN(C(=O)C2Cc3ccccc3CN2S(=O)(=O)c2ccc(F)cc2)CC1", "note": "(stereo not given)", "Potency": "inconclusive [activator, partial curve, poor fit]"}
{"smiles": "Cc1ccc(N2Cc3ccccc3C2=S)cc1", "Potency": "inconclusive [activator, partial curve, poor fit]"}
{"smiles": "N=c1oc2ccccc2cc1-c1nc(-c2ccccc2)cs1", "Potency": "inconclusive [activator, full curve, poor fit]"}
{"smiles": "O=C(/C=C/c1c(F)cccc1Cl)Nc1ncccn1", "Potency": "inconclusive [activator, full curve, poor fit]"}
{"smiles": "Cc1cc(OCC(=O)Nc2cnn(CCCC(=O)O)c2)ccc1[N+](=O)[O-]", "activity change, positive = activation": "inactive: -0.517%"}
{"smiles": "O=C(CSCCc1ccccn1)Nc1ccccn1", "Potency": "inconclusive [activator, single point]"}
{"smiles": "O=C(Nc1ccccc1)Nc1nnc(-c2cccs2)s1", "Potency": "inconclusive [activator, full curve, poor fit]"}
{"smiles": "Cc1ccccc1NC(=O)C(Cl)=C(Cl)Cl", "Potency": "inconclusive [activator, single point]"}
{"smiles": "O=C(CSc1nc2nn(-c3ccccc3)c(=O)c-2c2n1CCCCC2)c1ccc(O)c(O)c1", "Potency": "active: 28.2 µM"}
{"smiles": "O=C(Nc1ccccc1Oc1ccccc1)c1cc([N+](=O)[O-])ccc1Cl", "Potency": "inconclusive [activator, partial curve, poor fit]"}
{"smiles": "O=C(NCc1ccc(F)cc1)C1CCCN(c2nc3ccsc3c(=O)s2)C1", "note": "(stereo not given)", "activity change, positive = activation": "inactive: 0.192%"}
{"smiles": "CN(C(=O)CSc1nc2ccccc2o1)C1CCS(=O)(=O)C1", "note": "(stereo not given)", "Potency": "inconclusive [activator, partial curve, poor fit]"}
{"smiles": "O=C(NCc1ccc(-c2nc3ccccc3s2)cc1)c1ccc(Br)o1", "Potency": "inconclusive [activator, partial curve, poor fit]"}
{"smiles": "CCOC(=O)C1=C(C)c2ccccc2N(S(=O)(=O)C(F)(F)F)C1C(=O)OCC", "note": "(stereo not given)", "activity change, positive = activation": "inactive: 1.85%"}
{"smiles": "Cn1c(Nc2cccc(Cl)c2)nc2ccccc21", "Potency": "inconclusive [activator, partial curve, poor fit]"}
{"smiles": "Cn1c(SCC(=O)c2ccc(-c3ccccc3)cc2)nnc1-c1ccco1", "Potency": "inconclusive [activator, partial curve, poor fit]"}
{"smiles": "CC(C)Oc1ccc(C(=O)/C(=C\\c2cccs2)c2nc3ccccc3o2)cc1", "Potency": "inconclusive [activator, full curve, poor fit]"}
{"smiles": "O=C(/C=C/c1ccc2c(c1)OCO2)Nc1nc2ccccc2s1", "Potency": "inconclusive [activator, partial curve, poor fit]"}
{"smiles": "CCOc1cc(-c2ccccc2)nc(N)n1", "Potency": "inconclusive [activator, partial curve, poor fit]"}
{"smiles": "COc1ccc(C(=O)n2cc(C(=O)c3cc(C)ccc3O)cn2)cc1OC", "activity change, positive = activation": "inactive: 16%"}
{"smiles": "Cc1ccc(NS(=O)(=O)c2cccc(C(=O)Nc3cc(C)on3)c2)cc1", "activity change, positive = activation": "inactive: -0.535%"}
{"smiles": "O=C1CCCC(O)=C1N=Nc1ccc2c(c1)OCO2", "Potency": "inconclusive [activator, full curve, poor fit]"}
{"smiles": "CCn1ccc(C(=O)Nc2ccc(N(C)C(C)=O)cc2)n1", "Potency": "inconclusive [activator, single point]"}
{"smiles": "O=C(Cc1cccs1)NCc1ccccc1", "Potency": "inconclusive [activator, full curve, poor fit]"}
{"smiles": "O=C(N/N=C/c1cccnc1)c1ccc2c(c1)OCO2", "activity change, positive = activation": "inactive: 9.38%"}
{"smiles": "CN(C(=O)COC(=O)/C=C/c1cccs1)C1CCCCC1", "Potency": "inconclusive [activator, partial curve, poor fit]"}
{"smiles": "O=C(COC(=O)/C=C/c1ccc([N+](=O)[O-])cc1)NCc1ccccc1", "activity change, positive = activation": "inactive: 0.276%"}
{"smiles": "COc1ccc(NC(=O)C2CCCN(c3ncccn3)C2)cc1", "note": "(stereo not given)", "Potency": "inconclusive [activator, partial curve, poor fit]"}
{"smiles": "CC(C)=CC(=O)Nc1nc2ccc([N+](=O)[O-])cc2s1", "Potency": "inconclusive [activator, partial curve, poor fit]"}
{"smiles": "COc1ccc(NC(=O)CC2SC(N3CCOCC3)=NC2=O)cc1OC", "note": "(stereo not given)", "activity change, positive = activation": "inactive: 5.11%"}
{"smiles": "CC1(C)CC(=O)C(N=Nc2c(Cl)cc(Cl)cc2Cl)=C(O)C1", "Potency": "inconclusive [activator, partial curve, poor fit]"}
{"smiles": "Fc1ccc(NC(=S)NN=C2CCCCCC2)cc1", "Potency": "inconclusive [activator, single point]"}
{"smiles": "Cc1ccc(N2C(=O)c3cccc4c([N+](=O)[O-])ccc(c34)C2=O)c2cccnc12", "activity change, positive = activation": "inactive: -3.02%"}
{"smiles": "Cc1ccccc1C(=O)NC(=S)Nc1ccc(S(=O)(=O)N2CCOCC2)cc1", "activity change, positive = activation": "inactive: -12.9%"}
{"smiles": "COc1ccc2c(c1)CCc1c(C(=O)N3CCCC3)noc1-2", "Potency": "inconclusive [activator, partial curve, poor fit]"}
{"smiles": "CC(=O)Nc1ccc(C(=O)OCC(=O)N2CCN(C(=O)c3ccco3)CC2)cc1", "activity change, positive = activation": "inactive: 7.9%"}
{"smiles": "C=CSc1sc(Cl)c(N2CCOCC2)c1[N+](=O)[O-]", "Potency": "inconclusive [activator, single point]"}
{"smiles": "c1ccc(-c2cnc(-c3ccccc3)nc2)cc1", "Potency": "inconclusive [activator, partial curve, poor fit]"}
{"smiles": "O=C(CC12CC3CC(CC(C3)C1)C2)NC(=S)N1CCCCC1", "activity change, positive = activation": "inactive: 12.2%"}
{"smiles": "OC1(C(F)(F)F)CC(O)(C(F)(F)F)n2nc(-c3ccccc3)cc2N1", "note": "(stereo not given)", "Potency": "inconclusive [activator, partial curve, poor fit]"}
{"smiles": "COc1ccc(NC(=O)c2cc3ccccc3o2)cc1", "activity change, positive = activation": "inactive: 14.7%"}
{"smiles": "CCN(CC)S(=O)(=O)c1ccc2oc(SCC(=O)Nc3cc(C)on3)nc2c1", "Potency": "inconclusive [activator, single point]"}
{"smiles": "Cc1cccc(C=Nc2ccc3c(c2)oc2ccccc23)c1O", "Potency": "inconclusive [activator, full curve, poor fit]"}
